Reference: PMC4336329 (PLoS ONE, 2015)
Screen size: about 310,000 compounds; about 2,200 (0.71%) showed an effect of 50% or more. The effect is printed as a negative number. The list shows a part of the results.

Each compound was assayed against human ether-à-go-go-related gene (hERG) potassium channel (human, UniProt Q12809) (assay: primary screen, population patch clamp on CHO cells stably expressing hERG).
human ether-à-go-go-related gene (hERG) potassium channel, sequence (Q12809 whole entry, looked up): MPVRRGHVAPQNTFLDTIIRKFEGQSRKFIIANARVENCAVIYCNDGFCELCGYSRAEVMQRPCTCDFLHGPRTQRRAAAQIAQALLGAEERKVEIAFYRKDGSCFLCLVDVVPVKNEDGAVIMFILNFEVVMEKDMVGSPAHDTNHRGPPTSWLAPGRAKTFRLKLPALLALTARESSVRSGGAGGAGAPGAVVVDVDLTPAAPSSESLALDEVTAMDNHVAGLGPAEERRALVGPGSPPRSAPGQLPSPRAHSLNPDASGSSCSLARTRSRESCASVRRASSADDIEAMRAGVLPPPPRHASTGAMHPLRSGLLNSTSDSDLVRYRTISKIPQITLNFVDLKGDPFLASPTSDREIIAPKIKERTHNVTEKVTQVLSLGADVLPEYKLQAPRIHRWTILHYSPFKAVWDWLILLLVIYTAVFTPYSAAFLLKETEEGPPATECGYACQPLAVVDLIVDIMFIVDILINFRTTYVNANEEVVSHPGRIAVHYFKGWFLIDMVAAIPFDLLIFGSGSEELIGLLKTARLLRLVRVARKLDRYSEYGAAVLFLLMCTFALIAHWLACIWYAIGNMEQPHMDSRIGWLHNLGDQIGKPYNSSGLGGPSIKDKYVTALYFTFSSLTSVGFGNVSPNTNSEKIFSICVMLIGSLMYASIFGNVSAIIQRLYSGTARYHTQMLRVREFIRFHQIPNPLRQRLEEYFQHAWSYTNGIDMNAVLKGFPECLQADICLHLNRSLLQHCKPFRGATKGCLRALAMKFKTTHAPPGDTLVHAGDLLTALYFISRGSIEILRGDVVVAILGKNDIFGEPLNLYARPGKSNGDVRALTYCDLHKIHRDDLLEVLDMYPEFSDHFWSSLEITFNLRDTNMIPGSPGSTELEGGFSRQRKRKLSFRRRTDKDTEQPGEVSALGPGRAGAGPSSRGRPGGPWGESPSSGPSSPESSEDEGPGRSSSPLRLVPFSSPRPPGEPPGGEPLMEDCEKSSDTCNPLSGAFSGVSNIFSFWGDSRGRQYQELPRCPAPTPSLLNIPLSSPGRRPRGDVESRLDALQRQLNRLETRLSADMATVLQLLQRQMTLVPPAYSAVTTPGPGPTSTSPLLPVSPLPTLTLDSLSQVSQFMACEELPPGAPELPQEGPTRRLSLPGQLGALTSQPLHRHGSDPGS

| SMILES | hERG current change (%, negative = inhibition) at 1uM [%] |
| --- | --- |
| N#CC1(NC(=O)COC(=O)CNC(=O)c2sc3ccccc3c2Cl)CCCCC1 | -6.89 |
| COc1ccc(NC(=O)CCN2C(=O)c3ccccc3S2(=O)=O)c(OC)c1 | 6.77 |
| NNc1ccc(S(=O)(=O)N2CCCCC2)cn1 | 19.4 |
| CCc1ccc(CN2CCCC(C(=O)Nc3ccc(-c4cscn4)cc3)C2)o1 (centres unmarked) | 7.05 |
| COc1ccc([C@H]2CC(=O)C=C(c3ccc4ncccc4c3)C2)cc1 | 0.85 |
| Cc1nc2ncnn2c(C)c1CCC(=O)N1CCc2ccccc21 | -66.3 |
| O=C(COc1ncnc2sccc12)N1CCc2ccccc2C1 | 5.88 |
| COc1ccc2c(c1)nc(NCCCO)n2Cc1ccccc1 | 8.92 |
| Cc1cc(C)n(-c2cc(N3CCN(S(=O)(=O)c4ccc(Br)cc4)CC3)ccc2[N+](=O)[O-])n1 | 4.96 |
| O=C(NCCc1ccc(Cl)cc1)c1ccc(=O)[nH]c1 | 10.8 |
| COc1cccc(/C=C/C(=O)OCC(=O)Nc2ccc(Cl)cn2)c1 | 4.84 |
| O=C(N/N=C/c1ccc[nH]1)c1cc(-c2ccc(Cl)cc2)nc2ccccc12 | 5.33 |
| Cc1cccc(C)c1Nc1nnc(SC(C)C(=O)Nc2c(C)n(C)n(-c3ccccc3)c2=O)s1 (centres unmarked) | 1.11 |
| CC(C)=NOc1nc(N(C)C)nc(N2CCOCC2)n1 | 11.8 |
| COc1nc(NC(C)(C)C)nc(Oc2ccc(=O)n(-c3ccccc3)n2)n1 | -6.19 |
| CCOC(=O)C1(Cc2cccc(Cl)c2)CCCN(C(=O)c2cc(C(C)C)nn2C)C1 (centres unmarked) | 14.2 |
| C/C=C/c1ccc(OCC(=O)N2CCc3cc(OC)c(OC)cc3C2)c(OC)c1 | 8.64 |
| CN(C(=O)C1CCC(=O)N(C2CC2)C1)C1CCCCC1 (centres unmarked) | 17.6 |
| O=c1[nH]ncc(N/N=C/c2ccccc2)c1Cl | -9.12 |

| SMILES | hERG current change (%, negative = inhibition) at 1uM [%] |
| --- | --- |
| COc1ccc(/C=N/NC(=O)c2cccc(OC(F)(F)C(F)F)c2)cc1O | 22.3 |
| O=C(O)C[C@H]1c2ccccc2S(=O)(=O)N1C1CCCCC1 | 20.8 |
| COC(=O)C1=C(C)C(c2ccc(OC)cc2)NC(=S)N1 (centres unmarked) | 14.2 |
| O=S(=O)(NCc1cccnc1)c1cccc2cccnc12 | 4.95 |
| CCCc1ncc(C(O)c2ccc(OC)cc2)n1C (centres unmarked) | -1.53 |
| CN(C(=O)/C=C/c1ccccc1)C1CCS(=O)(=O)C1 (centres unmarked) | 2.19 |
| CCC1CCCCN1c1ccc([N+](=O)[O-])cc1/C=N/NC(=O)Cn1c2ccccc2c(=O)c2ccccc21 (centres unmarked) | 5.27 |
| O=C(Nc1cc(S(=O)(=O)N2CCOCC2)ccc1N1CCCC1)c1cccnc1Cl | 8.29 |
| C=CCOc1ccccc1CN1CCC(C(=O)Nc2cccc(-c3ccn[nH]3)c2)CC1 | 36.9 |
| COC(=O)C(O)(CC(=O)Nc1ccc(C)c(F)c1)C(F)(F)F (centres unmarked) | 14 |
| Cn1nnnc1SCc1cc(=O)[nH]c2ccccc12 | 6.55 |
| CC1=C(/C=C/C(C)=N\NC(=O)c2ccncc2)C(C)(C)CCC1 | 5.92 |
| CN(CC(=O)Nc1ccccc1Cl)C(=O)COC(=O)Cc1ccc(F)cc1 | 5.61 |
| O=C(CSc1nnc(-c2ccccc2)n1CC1CCCO1)N1CCCC1 (centres unmarked) | 5.92 |
| Cc1cc(F)ccc1NC(=O)C1CCN(S(=O)(=O)c2ccc3c(c2)CCCC(=O)N3)CC1 | 17.4 |
| O=C(Nc1ccc(Oc2ccccc2)nc1)C1CCCCN1Cc1cccc(O)c1 (centres unmarked) | 11 |
| Cc1cc(NC(=O)CCC(=O)N(CC(=O)NCC2CCCO2)c2cccc(F)c2)no1 (centres unmarked) | 11.7 |
| Cc1ccc(S(=O)(=O)NCC(=O)OCCOc2cccc(Cl)c2)cc1 | 15.8 |
| CCOC(=O)c1c(C)c(C(=O)NCc2ccc(OC)cc2)c(C)n1C | 15.9 |

| SMILES | hERG current change (%, negative = inhibition) at 1uM [%] |
| --- | --- |
| COC(=O)c1c(C)[nH]c(C(=O)/C=C/c2ccc(Cl)cc2)c1C | 9.67 |
| COc1ccccc1NC(=O)COc1cccc2c1CCNC2=O | -5.71 |
| CC(C)C(C(=O)NCC1CCCO1)N(C(=O)CNS(=O)(=O)c1ccc(F)cc1)C1CCCCC1 (centres unmarked) | 4.69 |
| Cc1onc(-c2ccccc2Cl)c1C(=O)N1CCN(C/C=C/c2ccccc2)CC1 | -9.12 |
| CCc1nc2ccccc2n1CC(O)COc1ccc(NC(C)=O)cc1 (centres unmarked) | 18.3 |
| COc1ccc(-c2cc(CNS(=O)(=O)c3ccc(NC(C)=O)cc3)on2)cc1 | 11.6 |
| COc1ccc(-c2oc3cccnc3c2C#CC2(O)CCCCC2)cc1 | 6.61 |
| Cc1cc(C(=O)N/N=C/C=C/c2ccc(Br)cc2)n[nH]1 | 3.44 |
| Cc1ccccc1C(=O)NC1CC2CCCC(C1)N2Cc1ccccc1 (centres unmarked) | 3.02 |
| O=C(CC1SC(N2CCCCC2)=NC1=O)Nc1cccc(C(F)(F)F)c1 (centres unmarked) | 11.1 |
| O=C(COc1ccccc1[N+](=O)[O-])N1CCC(Cc2ccccc2)CC1 | 11.6 |
| Cc1ccc(S(=O)(=O)N2CCC(C(=O)Nc3ccccc3N3CCCC3)CC2)c(C)c1 | 16.5 |
| COC(=O)c1sccc1NC(=O)C12CC3CC(CC(C3)C1)C2 | 20.9 |
| CCCCc1nc2ccccc2n1Cc1nnc2n1-c1ccccc1SC2 | -29.1 |
| COc1ccc(CNC(=O)C2CCC(CNc3c(N4CCC(C)CC4)c(=O)c3=O)CC2)cc1 (centres unmarked) | 13.6 |
| CNC(=S)c1cc(C(C)(C)C)c(O)c(C(C)(C)C)c1 | 10.4 |
| CC(C)NC(=S)N/N=C1\CCCc2ccccc21 | 9.25 |
| CCCCn1c(N)c(N(CC(C)C)C(=O)c2cc(-c3ccc(OC)c(OC)c3)nc3ccccc23)c(=O)[nH]c1=O | -0.632 |
